{"source": "the supplement of paper PMC11417369", "note": "± gives the standard deviation of the averaged measurements. Some of the results follow.", "data": [{"tested_on": "PfAP2-EXP AP2 domain (GST-tagged)", "test": "gcPBM binding intensity (ln(normalized median fluorescence intensity)); higher = stronger DNA binding", "outline": "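For binding intensity, the highest Masliner-normalised natural-log median intensity across replicate spots of either probe orientation was taken. Protein bound to the array was stained with Alexa488 anti-GST antibody and scanned at 488 nm. The protein, GST-tagged P. falciparum DNA-binding domains from E. coli at about 25 μg on average, had been applied for 1 h to an Agilent 4 × 180k array of primer-extended double-stranded 36-bp intergenic genomic probes and negative controls.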", "values": [{"sequence": "ATATACACACAAAAACGTACACATATATATATGTAT [XGTACX_site2673]", "gcPBM binding intensity (ln)": "8.76 ± 0.33"}, {"sequence": "GGTATAATAATATATAGTACACACAAAAATGGAAGT [XGTACX_site7058]", "gcPBM binding intensity (ln)": "9.22 ± 0.54"}, {"sequence": "AAAAAAAAAAAAAGCACACATATAAATATGAATAAA [CACACA_site1393]", "gcPBM binding intensity (ln)": "8.4 ± 0.61"}, {"sequence": "AAAAAAAAAAAAAACACACACATACACCCAAAAATG [CACACA_site4223]", "gcPBM binding intensity (ln)": "8.66 ± 0.45"}, {"sequence": "CAATCATGGGTTTACACACACATGCATGTGAAAATT [CACACA_site1349]", "gcPBM binding intensity (ln)": "9.23 ± 0.56"}, {"sequence": "AAAAAAAAAAAAAAAAAAAAAAAAATATATAATTTA [CACACA_negctrl_site583]", "gcPBM binding intensity (ln)": "9.1 ± 0.071"}, {"sequence": "AACCAAACAAATAAACGTACAAACATTACATATATT [XGTACX_site2265]", "gcPBM binding intensity (ln)": "8.41 ± 0.43"}, {"sequence": "ATTTTTGCAGTAATTAAATAGACAAAATGAAAAAAA [CACACA_negctrl_site1537]", "gcPBM binding intensity (ln)": "8.55 ± 0.42"}, {"sequence": "CATATTAAAAATTATTGTACATATTAATGAATATAA [XGTACX_site2734]", "gcPBM binding intensity (ln)": "8.29 ± 0.22"}, {"sequence": "GATGATAATAAATTTATATATAATATTATCTTATGT [GTGCAC_negctrl_site672]", "gcPBM binding intensity (ln)": "8.34 ± 0.42"}, {"sequence": "AAAATAATATTTAATACACACATAATTTTAATATAA [CACACA_site4588]", "gcPBM binding intensity (ln)": "8.21 ± 0.38"}, {"sequence": "TACTTATATTATTTTATTATTAAATTTAAAACGAAA [CACACA_negctrl_site736]", "gcPBM binding intensity (ln)": "8.35 ± 0.42"}, {"sequence": "ACAATAAAGAAGTGTACACATATATCAATAAAAAAA [CACACA_site5228]", "gcPBM binding intensity (ln)": "8.82 ± 0.32"}, {"sequence": "TTATATACATAAAAATGTACTTTTTATAAAATATAT [XGTACX_site8281]", "gcPBM binding intensity (ln)": "8.21 ± 0.18"}, {"sequence": "AAGTTAGTATTCTGCTGTACTTCTATATATAAGTGT [XGTACX_site7678]", "gcPBM binding intensity (ln)": "8.41 ± 0.3"}, {"sequence": "CAATAATTTTTTAAATGTACTTTATTATAATTTAAT [XGTACX_site135]", "gcPBM binding intensity (ln)": "8.16 ± 0.38"}, {"sequence": "TATATATAATACAGTATGCACTATTTTTATTAAAAA", "gcPBM binding intensity (ln)": "8.46 ± 0.22"}, {"sequence": "GAATGAATCAATGTTTGTACTCAACAAATTATAAGG [XGTACX_site5122]", "gcPBM binding intensity (ln)": "8.47 ± 0.32"}, {"sequence": "GCCTTCCTTCTAAATGCACACGGAAAGTATAAATGT [CACACA_site8797]", "gcPBM binding intensity (ln)": "8.88 ± 0.15"}, {"sequence": "ACAACATTTCTCAAATGTACATAATATAATTTATAT [XGTACX_site3224]", "gcPBM binding intensity (ln)": "8.51 ± 0.23"}, {"sequence": "TATTAATTCTTAAATTTTTTTTTTTAATTCCTAGGA [CACACA_negctrl_site879]", "gcPBM binding intensity (ln)": "7.93 ± 0.49"}, {"sequence": "GTCTAACAACCAAACGCACACACACTAATAAAAAAA [CACACA_site8026]", "gcPBM binding intensity (ln)": "8.71 ± 0.22"}, {"sequence": "TTTTCTTACATCTTATAAAAAAAAATATATATTATA [GTGCAC_negctrl_site118]", "gcPBM binding intensity (ln)": "8.17 ± 0.27"}, {"sequence": "TAATATATATATTTATGTACATATAAATTTTCTCCT [XGTACX_site4496]", "gcPBM binding intensity (ln)": "8.66 ± 0.4"}, {"sequence": "TATTTTAAAACAAAAATATAATTTCATAAAAATATA [CACACA_negctrl_site394]", "gcPBM binding intensity (ln)": "8.01 ± 0.44"}, {"sequence": "ATATATCAAAAATGATGACATAAATATATTAATTTA [TGCATGCA_negctrl_site259]", "gcPBM binding intensity (ln)": "8.11 ± 0.3"}, {"sequence": "ATAAAATAATCTTATGCACACCAAAAATTTATATAA [CACACA_site8332]", "gcPBM binding intensity (ln)": "8.53 ± 0.25"}, {"sequence": "TATCTGTATGTATGTACACACAAAAAATGGAATATA [CACACA_site5947]", "gcPBM binding intensity (ln)": "8.7 ± 0.38"}, {"sequence": "TTTTTGTAAAATAAACGTACAAAACAATTGTTCATT [XGTACX_site6537]", "gcPBM binding intensity (ln)": "8.67 ± 0.35"}, {"sequence": "TATAAACCAATGAACACACAAACATATATATATATA [CACACA_site3168]", "gcPBM binding intensity (ln)": "10.1 ± 0.36"}, {"sequence": "TCTTTTTATATTTATTGTACATAAAAAATAAAACAT [XGTACX_site4073]", "gcPBM binding intensity (ln)": "8.47 ± 0.33"}, {"sequence": "TTTTTTTTTCTTTCTTTCTTTTGTAAAAACCTCAAA [CACACA_negctrl_site723]", "gcPBM binding intensity (ln)": "8.46 ± 0.37"}, {"sequence": "ATATGTATATATAAAAGTACGCGTAAAAAAAAAAAA [XGTACX_site5377]", "gcPBM binding intensity (ln)": "9.12 ± 0.51"}, {"sequence": "TAAATATATAAATACACACACATACACAAAAAAAAA [CACACA_site5890]", "gcPBM binding intensity (ln)": "8.76 ± 0.46"}, {"sequence": "TATACACCCTAAAATACACACACACCCACCCATATA [CACACA_site9380]", "gcPBM binding intensity (ln)": "9.07 ± 0.72"}, {"sequence": "AAATACTGTACAAAGGTGCATAAAAAGTGGGGCATA", "gcPBM binding intensity (ln)": "9.35 ± 0.028"}, {"sequence": "TCAAAAGAAATAAAAACATGCATAAAAGTAAAAATA [TGCATGCA_site832]", "gcPBM binding intensity (ln)": "9.02 ± 0.45"}, {"sequence": "AAATAATATATATACACACACACATATATATATACA [CACACA_site554]", "gcPBM binding intensity (ln)": "8.56 ± 0.53"}, {"sequence": "TTATGATAATTTTGCACACACTTAGGAAAAATTATG [CACACA_site4949]", "gcPBM binding intensity (ln)": "8.57 ± 0.26"}, {"sequence": "TGTTTTTCATAGTGCACACATAACCAAAAATAGTAT [CACACA_site3150]", "gcPBM binding intensity (ln)": "9.35 ± 0.44"}, {"sequence": "ACGTATATTTTTACATGTACATATGTAAAAAATTTT [XGTACX_site4587]", "gcPBM binding intensity (ln)": "8.71 ± 0.36"}, {"sequence": "TTTTATTTATCATACACACACAGAAAAAAAAAAAAA [CACACA_site158]", "gcPBM binding intensity (ln)": "8.62 ± 0.51"}, {"sequence": "CCTTTCCTTTTATAAGTGCATATAACAAATGTATAC [GTGCAC_site9872]", "gcPBM binding intensity (ln)": "8.78 ± 0.23"}, {"sequence": "GAATGTTTATTATATGCATGTTATATATATGAATAT [TGCATGCA_site4]", "gcPBM binding intensity (ln)": "8.71 ± 0.38"}, {"sequence": "AATAATGAAAAATCAAATAACCTAAATTACAACTGT [XGTACX_negctrl_site65]", "gcPBM binding intensity (ln)": "8.43 ± 0.38"}, {"sequence": "TAAATATAATAAAAGTGTACTTACACTTACATATAA [XGTACX_site1206]", "gcPBM binding intensity (ln)": "8.21 ± 0.33"}, {"sequence": "TTTCACACTATTTCATGTACACATAAAATTATATAT [XGTACX_site8692]", "gcPBM binding intensity (ln)": "8.88 ± 0.23"}, {"sequence": "TTGTATATATTTCCTTGTACGTAATAATTCTTATTG [XGTACX_site3938]", "gcPBM binding intensity (ln)": "8.82 ± 0.3"}, {"sequence": "ATATAATAAGGTTAAGCACACATATTACATATATAA [CACACA_site9110]", "gcPBM binding intensity (ln)": "8.24 ± 0.33"}, {"sequence": "AACAGATAAAAGGGTACACACATATATACATGTACA [CACACA_site225]", "gcPBM binding intensity (ln)": "8.65 ± 0.3"}, {"sequence": "TTTTATTCCGTTTCAAAATAAGAAAAAAAAAAAAAT [CACACA_negctrl_site1199]", "gcPBM binding intensity (ln)": "8.26 ± 0.44"}, {"sequence": "TACTTCTCATTTGTTGTTGTATTTTAGGCATACCCT [XGTACX_negctrl_site385]", "gcPBM binding intensity (ln)": "9.05 ± 0.35"}, {"sequence": "AAAAATATAAATGACACACACTTAAAAACAAAGAAA [CACACA_site4540]", "gcPBM binding intensity (ln)": "8.87 ± 0.43"}, {"sequence": "ATTTAAAAAAAAAAAAATAAATAACTTGAAAAACAA [GTGCAC_negctrl_site318]", "gcPBM binding intensity (ln)": "8.31 ± 0.45"}, {"sequence": "CTTATATATACGTGCACACATATATATAAGATATAT [CACACA_site1752]", "gcPBM binding intensity (ln)": "8.96 ± 0.26"}, {"sequence": "AAGGATAATAGGTACACATGCAATATTCATATATAC [TGCATGCA_site523]", "gcPBM binding intensity (ln)": "9.1 ± 0.24"}]}]}
